Source: the supplement of paper PMC12217912
This is one part of the list. The full chains were built here from the parent and the listed change. Values near 0.05 are background.

B1: TEV protease; numbered along this chain (parent)
chain: MGESLFKGPRDYNPISSSICHLTNESDGHTTSLYGIGFGPFIITNKHLFRRNNGTLVVQSLHGVFKVKDTTTLQQHLVDGRDMIIIRMPKDFPPFPQKLKFREPQREERICLVTTNFQTKSMSSMVSDTSCTFPSGDGIFWKHWIQTKDGQCGSPLVSTRDGFIVGIHSASNFTNTNNYFTSVPKNFMELLTNQEAQQWVSGWRLNADSVLWGGHKVFMVKPEEPFQPVKEATQL

Variants of: B1
Experiment: raw area under fraction-flipped curve 0-4 h after induction (AUC4h, not background-subtracted), DNA-recorder readout of cleavage of the substrate (dimensionless); higher = more cleavage of the substrate by the protease variant
Conditions: temperature: 34 °C; time window: 0-4 h after rhamnose induction
Protocol: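 In vivo DNA recorder in E. coli TOP10(DE3) ΔrhaA at 34 °C. Each TEVp single-site mutant (parent TEVp 0) is paired with a single-site variant of the 7-mer TEVs (canonical ENLYFQ|S). The substrate sits between flexible linkers in a Bxb1-sfGFP-TEVs-SsrA fusion, so cleavage stabilises Bxb1 and speeds flipping of a recombination array, read by NGS. The value is the raw area under the fraction-flipped curve over 0-4 h after rhamnose induction (AUC4h), with ≥20 reads per time point. It is not background-subtracted; inactive controls average about 0.047.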
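Also: Bxb1 expression induced with 0.2% (w/v) L-rhamnose at OD600 near 0.5, cultures sampled hourly, flipped fraction per protease–substrate barcode pair counted by paired-end Illumina sequencing.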

Row | Variant | area with substrate ENLYFAS | area with substrate ENLYFCS | area with substrate ENLYFDS | area with substrate ENLYFES | area with substrate ENLYFFS | area with substrate ENLYFIS | area with substrate ENLYFKS | area with substrate ENLYFLS | area with substrate ENLYFMS | area with substrate ENLYFNS | area with substrate ENLYFPS | area with substrate ENLYFRS | area with substrate ENLYFTS | area with substrate ENLYFVS | area with substrate ENLYFYS | area with substrate ENLYFHS | area with substrate ENLYFGS | area with substrate ENLYFSS | area with substrate ENLYFWS
1 | Q75R | 0.0457 | 0.0465 | 0.0548 | 0.0693 | 0.0597 | 0.0582 | 0.0287 | 0.0714 | 0.0632 | 0.0338 | 0.0593 | 0.0761 | 0.0608 | 0.057 | 0.053 |  |  |  | 
2 | Q75K | 0.0663 | 0.0743 |  | 0.061 | 0.0602 | 0.0601 | 0.0641 |  | 0.054 | 0.0637 | 0.0591 | 0.0461 | 0.0591 | 0.0674 | 0.0621 | 0.0593 |  |  | 
3 | R81C | 0.0466 | 0.0693 | 0.0547 | 0.0522 | 0.0709 | 0.0643 | 0.0643 |  | 0.059 | 0.065 | 0.0618 | 0.0571 | 0.0521 | 0.0628 | 0.0581 | 0.0564 | 0.034 | 0.0543 | 
4 | Q59I | 0.0595 |  |  | 0.077 | 0.0737 | 0.0511 | 0.0672 | 0.058 | 0.0497 |  | 0.0588 | 0.0849 | 0.0667 |  | 0.072 | 0.0567 |  | 0.0448 | 
5 | T71E | 0.0453 | 0.0605 | 0.0584 | 0.0547 |  | 0.0543 |  | 0.0671 | 0.0623 | 0.0414 | 0.0499 |  | 0.103 | 0.0575 | 0.0576 | 0.0601 |  | 0.0721 | 0.072
6 | N53M | 0.0185 | 0.0598 | 0.0523 | 0.0354 | 0.0564 | 0.0549 | 0.0634 | 0.0702 | 0.0665 | 0.0549 | 0.0569 | 0.0661 | 0.0592 | 0.0542 | 0.064 | 0.0641 | 0.0614 | 0.0432 | 0.0558
7 | N53V | 0.0785 | 0.0615 | 0.0682 | 0.062 |  | 0.0558 |  |  | 0.0715 | 0.0546 |  | 0.0637 | 0.0382 |  | 0.054 |  |  | 0.0623 | 
8 | F49I | 0.0324 | 0.06 | 0.0668 | 0.0582 | 0.0672 | 0.0562 |  |  | 0.0615 | 0.0387 | 0.0399 | 0.059 |  | 0.0633 |  | 0.0489 | 0.0412 | 0.0473 | 
9 | F49A | 0.0569 | 0.0465 | 0.051 | 0.0606 | 0.0636 | 0.0581 | 0.0552 | 0.0575 |  | 0.0656 | 0.0505 | 0.0666 | 0.0595 |  |  | 0.0822 |  |  | 0.0594
10 | F49M | 0.0483 | 0.0541 | 0.0495 | 0.0537 | 0.0585 | 0.0582 | 0.0634 | 0.0569 | 0.0514 | 0.058 | 0.059 | 0.0622 | 0.0553 | 0.0483 | 0.0465 | 0.0469 | 0.0504 | 0.0677 | 0.0643
11 | K98L | 0.0691 |  |  | 0.0847 | 0.0695 | 0.0639 |  |  | 0.0592 | 0.0632 | 0.0592 |  | 0.0544 | 0.0548 | 0.0691 | 0.0455 |  | 0.054 | 0.0487
12 | K98A | 0.0746 | 0.057 | 0.111 | 0.0547 | 0.0601 | 0.0567 | 0.0656 |  |  |  | 0.0617 |  | 0.06 |  | 0.0365 |  |  |  | 0.0746
13 | K98C | 0.0579 | 0.0575 |  | 0.0669 | 0.0678 | 0.0583 | 0.0638 | 0.0558 | 0.0695 | 0.0599 | 0.0545 |  | 0.0677 | 0.0533 | 0.0656 | 0.0999 |  | 0.0559 | 0.0553
14 | D82K | 0.0699 |  |  | 0.0503 | 0.0626 | 0.0618 | 0.06 |  | 0.0539 |  |  | 0.0589 | 0.0536 |  | 0.0559 |  |  |  | 0.0584
15 | D82N | 0.0585 | 0.0599 | 0.0678 | 0.0551 | 0.0746 | 0.0443 | 0.0557 | 0.0615 | 0.0631 | 0.0633 |  | 0.0594 | 0.109 |  |  |  |  | 0.0606 | 
16 | L77I | 0.067 |  | 0.0723 | 0.0547 | 0.0453 | 0.0597 | 0.0556 | 0.0686 | 0.0559 | 0.0638 | 0.0563 | 0.0562 |  |  |  | 0.0568 | 0.0592 | 0.0575 | 0.048
17 | L77H | 0.0578 | 0.0663 | 0.0459 | 0.0616 | 0.0655 | 0.0565 |  |  | 0.0595 | 0.059 | 0.0482 | 0.0611 | 0.0506 |  | 0.057 | 0.0462 | 0.0419 | 0.0601 | 
18 | S60H | 0.04 | 0.0572 | 0.0559 | 0.0875 | 0.0639 | 0.0583 | 0.0633 |  | 0.0668 | 0.0664 | 0.05 | 0.053 | 0.0555 | 0.0633 |  | 0.041 |  | 0.0596 | 0.0517
19 | K66L | 0.0389 | 0.0353 | 0.0653 | 0.0643 | 0.0747 | 0.0599 | 0.0626 | 0.0564 | 0.0684 | 0.0672 | 0.0604 |  | 0.0567 |  |  | 0.0649 |  | 0.0539 | 
20 | L99D | 0.0472 | 0.0451 |  |  | 0.0711 | 0.0477 | 0.0608 |  | 0.0402 |  | 0.044 |  |  |  |  | 0.0578 | 0.0443 |  | 0.0594
21 | N52C | 0.0676 |  | 0.0661 | 0.0671 | 0.0663 | 0.0514 | 0.0715 | 0.058 | 0.0617 | 0.052 | 0.0517 | 0.0549 | 0.0568 | 0.0606 |  | 0.0528 |  |  | 0.0474
22 | V78Y | 0.0293 | 0.0534 | 0.0534 | 0.0579 | 0.0637 | 0.0603 | 0.0603 |  |  | 0.0565 |  | 0.0569 |  | 0.0586 | 0.0549 |  |  |  | 0.0582
23 | V78P | 0.0526 | 0.057 | 0.0686 | 0.0622 | 0.0704 | 0.0535 | 0.0557 | 0.0526 | 0.0607 | 0.0568 | 0.0582 | 0.0551 |  |  | 0.0431 | 0.0565 | 0.0619 | 0.0733 | 0.055
24 | V78W | 0.0782 | 0.0598 |  | 0.0576 | 0.0685 | 0.0551 | 0.077 |  | 0.0545 | 0.0589 | 0.0529 | 0.0619 | 0.0618 | 0.0633 | 0.0546 | 0.0495 |  | 0.0584 | 0.0619
